Measurements as given in PubChem BioAssay AID1963576 (National Center for Advancing Translational Sciences (NCATS), 2024).
Hit rate of the full screen: of about 46,000 compounds, about 60 (0.1%) were called active. Roughly 3% stayed inconclusive and do not appear here. Calls follow the shape of the dose curve; as a rule, active = well fitted inhibition curve with a large enough effect; inconclusive = small, poorly fitted or top-dose-only effect; inactive = no such curve, though single readings can be large or run the other way. The list shows a part of the results.

Assay: Primary qHTS assay for Inhibitors of ovarian cancer metastasis using an organotypic tumor microenvironment (TME) model. Also: nearly all actives have a fitted effect of over 65% in size.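 As to activity change, negative = inhibition: plate controls were DMSO wells for no effect and tomatine positive control wells for full effect.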
Conditions: SKOV3ip1-GFP adhesion/invasion on 3D omental model, fluorescence; series mostly up to 45.8 µM; activity change, negative = inhibition: at the top concentration
Summary of the method: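 qHTS, 4-pt dose (0.36-46 umol/L); SKOV3ip1-GFP, 1,200 cells/well, no FBS; primary omental fibroblast/mesothelial co-culture 48 h pre-grown; 2 h RT + 16 h 37 C; PBS wash, 4% PFA; GFP count 488/509 nm.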
In the case of CCC(C)NC(=O)Cn1ccc2cc(S(=O)(=O)N3CCCCCC3)ccc21 (centres undefined), the “outcome” value is reported as “inactive”.
For O=C(CCNS(=O)(=O)c1ccc2c(c1)CCN2C(=O)C1CC1)Nc1ccc(OC(F)(F)F)cc1, the “outcome” value was “inactive”.
For COc1cccc(C(=O)Nc2ccc3nc(SCCOc4ccccc4)sc3c2)c1, the “activity change, negative = inhibition” value was inactive: -20.8%.
In the case of CCCCc1ccc(NS(=O)(=O)c2ccc(C)c(C(=O)N3CCN(c4cccc(C)c4C)CC3)c2)cc1, the “activity change, negative = inhibition” value is reported as inactive: 14.3%.
In the case of Cc1ccc2c(=O)cc(C(=O)Nc3sc4c(c3C(=O)NCc3cccnc3)CCCC4)oc2c1, the “activity change, negative = inhibition” value is reported as inactive: -4.85%.
For CCOC(=O)c1ccc(NC(=O)C2=C(C)C(=O)OC23CCN(C(C)C)CC3)cc1, the “outcome” value was “inactive”.
With COc1cccc2cc(C(=O)Nc3ccc(C)cc3)c(=O)oc12 the “activity change, negative = inhibition” value was inactive: -0.558%.
For Cc1ccc(CCNC(=O)c2ccc3c(c2)N(Cc2cccc(F)c2)C(=O)c2ccccc2S3)cc1, the “activity change, negative = inhibition” value was inactive: 2.2%.
With COc1ccc(-c2cc(C(F)(F)F)nc(SCC(=O)NC(C)c3ccccc3)n2)cc1 (centres undefined) the “outcome” value was “inactive”.
For Cc1cc(NS(=O)(=O)c2ccc(NC(=O)COc3cc(C)c(Br)cc3C(C)C)cc2)no1, the “activity change, negative = inhibition” value was inactive: -4.97%.
For CC(C)CCNC(=O)c1ccc2nc(Cc3ccccc3)oc2c1, the “activity change, negative = inhibition” value was inactive: 8.04%.
With CCOc1ccc(N(CC)C(=O)Cn2cnc3sc(C)c(S(=O)(=O)N4CCN(c5ncccn5)CC4)c3c2=O)cc1 the “outcome” value was “inactive”.
In the case of O=C(NCC(c1cccnc1)N1CCc2ccccc21)c1ccc(Cl)cc1 (centres undefined), the “outcome” value is reported as “inactive”.
In the case of Cc1ccc(CN(C(=O)COc2ccc(F)cc2)C2CCS(=O)(=O)C2)o1 (centres undefined), the “activity change, negative = inhibition” value is reported as inactive: 1.71%.
In the case of CCn1cc(S(=O)(=O)c2ccccc2)c(=O)c2cc(F)c(F)cc21, the “activity change, negative = inhibition” value is reported as inactive: 8.08%.
For Cc1cc(O)c(CN2CCN(c3ccccc3)CC2)c2oc(=O)cc(C)c12, the “outcome” value was “inactive”.
With CCCSCCCNC(=O)Cn1c(-c2cccs2)cc2ccccc21 the “activity change, negative = inhibition” value was inactive: 2.2%.
In the case of CCOC(=O)c1cc(NC(=O)c2ccc(F)cc2)c(=O)n2c1oc1ccc(Cl)cc12, the “activity change, negative = inhibition” value is reported as inactive: -1.31%.
In the case of O=C(Nc1c2c(nn1-c1ccc(Cl)cc1)CS(=O)(=O)C2)c1ccc(Br)cc1, the “activity change, negative = inhibition” value is reported as inactive: 8.24%.
In the case of COc1ccc(S(=O)(=O)N(CC(=O)Nc2ccc(Br)cc2)Cc2ccccc2)cc1, the “activity change, negative = inhibition” value is reported as inactive: -0.252%.
With Cc1ccc(NC(=O)C2CCCN(S(=O)(=O)c3cccs3)C2)c(C)c1 (centres undefined) the “activity change, negative = inhibition” value was inactive: -0.8%.
For Cc1ccc(NC(=O)CCCn2nc(C)c3c(C)n(-c4ccccc4)nc3c2=O)c(Cl)c1, the “outcome” value was “inactive”.
With COC(=O)CN1C(C(=O)c2ccccc2)=C(OC(=O)c2ccccc2)c2ccccc2S1(=O)=O the “activity change, negative = inhibition” value was inactive: -6.95%.
With CCCN1C(C(=O)c2ccccc2)=C(OC(=O)COc2ccc(C)cc2)c2ccccc2S1(=O)=O the “outcome” value was “inactive”.
For CCCCN(CCCC)C(=O)c1c[nH]c2ccc(S(=O)(=O)Nc3cccc(Cl)c3C)cc2c1=O, the “activity change, negative = inhibition” value was inactive: 0.0415%.
For Cc1ccc(C(=O)Nc2cnc3ccccn3c2=O)cc1, the “activity change, negative = inhibition” value was inactive: 3.96%.
For CCCn1c2ccccc2c2cnn(CC(=O)N3CCCC(C(=O)OCC)C3)c(=O)c21 (centres undefined), the “activity change, negative = inhibition” value was inactive: -5.19%.
With Cc1nc(-c2ccc(S(=O)(=O)NCc3ccccc3Cl)cc2)co1 the “outcome” value was “inactive”.
In the case of CCN(CC)CCCNC(=O)c1sc2nc3n(c(=O)c2c1C)CCCCC3, the “activity change, negative = inhibition” value is reported as inactive: -0.88%.
With CN(CC(=O)Nc1ccc(F)cc1F)S(=O)(=O)c1cccc2nsnc12 the “activity change, negative = inhibition” value was inactive: 0.487%.
For COc1ccc(-c2noc(CSc3nnc(Cc4ccccc4)n3-c3ccc(F)cc3)n2)cc1, the “activity change, negative = inhibition” value was inactive: 20.5%.
In the case of Cc1ccc(Cn2c(CN3CCC(C(=O)O)CC3)cc3ccccc32)cc1, the “activity change, negative = inhibition” value is reported as inactive: -5.08%.
With CCc1ccc(NC(=O)CSc2nnc(CC)c(CC)n2)cc1 the “activity change, negative = inhibition” value was inactive: 4.72%.
In the case of CCN(CC)S(=O)(=O)c1cc(-c2ccc(=O)n(C(C)C(=O)Nc3cccc(C#N)c3)n2)ccc1C (centres undefined), the “activity change, negative = inhibition” value is reported as inactive: -1.29%.
With Cc1cc(C)cc(N(CC(=O)Nc2c(C)cc(C)cc2C)S(=O)(=O)c2c(C)nn(C)c2C)c1 the “outcome” value was “inactive”.
In the case of CCOC(=O)C1CCN(C(=O)c2cnn(-c3ccc(F)cc3)c2-n2cccc2)CC1, the “activity change, negative = inhibition” value is reported as inactive: -0.728%.
With CCOC(=O)c1[nH]c2c(c1Cc1ccccc1)C(=O)CC(c1ccc(C(C)(C)C)cc1)C2 (centres undefined) the “activity change, negative = inhibition” value was inactive: 6.57%.
In the case of COc1cc(C2c3c(-c4c(C)cc(C)cc4O)n[nH]c3C(=O)N2Cc2ccco2)cc(OC)c1OC (centres undefined), the “activity change, negative = inhibition” value is reported as inactive: -0.124%.
In the case of CCOC(=O)C(C)Sc1nnc2cc(C)c3ccccc3n12 (centres undefined), the “activity change, negative = inhibition” value is reported as inactive: 26.1%.
With COc1ccc2oc(-c3cccc(NC(=O)c4cc([N+](=O)[O-])ccc4N4CCOCC4)c3)nc2c1 the “outcome” value was “inactive”.
In the case of COc1ccc(CNC(=O)CCCn2ccc3cc(S(=O)(=O)N4CCCC4)ccc32)cc1, the “activity change, negative = inhibition” value is reported as inactive: -29.7%.
For CCOc1cc(-c2nnc(SCC(=O)NC3CCCCC3)nc2-c2ccc(OC)c(OCC)c2)ccc1OC, the “activity change, negative = inhibition” value was inactive: -2.09%.
For CCOc1ccccc1NC(=O)CCS(=O)(=O)c1ccc2c(c1)oc(=O)n2C, the “outcome” value was “inactive”.
For CC(C)NC(=O)C1CCCN(c2ncnc3onc(-c4ccc(F)cc4)c23)C1 (centres undefined), the “activity change, negative = inhibition” value was inactive: -15.7%.
With Cc1ccc(-n2nc(C(=O)N(C)c3ccc(C)c(C)c3)c3c4ccccc4n(C)c3c2=O)cc1 the “activity change, negative = inhibition” value was inactive: -5.03%.
In the case of Cc1ccc(NC(=O)c2c(C)oc3ccc(O)c(CN4CCN(Cc5ccccc5)CC4)c23)cc1, the “activity change, negative = inhibition” value is reported as inactive: 8.66%.
With COc1ccc(OC)c(-c2cc(C(=O)Nc3c(C)nn(Cc4ccc(C)cc4)c3C)no2)c1 the “activity change, negative = inhibition” value was inactive: -4.39%.
For O=[N+]([O-])c1ccc(S(=O)(=O)N2CCn3cccc3C2c2ccc(Br)cc2)cc1 (centres undefined), the “activity change, negative = inhibition” value was inactive: -8.1%.
With COc1ccc(C(CNC(=O)c2oc3cc(Br)ccc3c2C)N2CCCCC2)cc1 (centres undefined) the “activity change, negative = inhibition” value was inactive: -4.48%.
In the case of Cc1ccccc1CNC(=O)C1CCCCN1S(=O)(=O)c1ccc(F)cc1 (centres undefined), the “activity change, negative = inhibition” value is reported as inactive: 20.6%.
For Cc1ccc(-n2ncc3c(NCCCN(C)C)ncnc32)cc1Cl, the “activity change, negative = inhibition” value was inactive: 3.11%.
With O=C(Cn1ncc2c3ccccc3n(Cc3ccccc3)c2c1=O)NCc1ccccn1 the “activity change, negative = inhibition” value was inactive: 2.26%.
With COc1ccc(Nc2ncc3c(n2)CCN(Cc2sccc2C)C3)c(OC)c1 the “activity change, negative = inhibition” value was inactive: -2.55%.
With Cc1cccc(NC(=O)CCCn2nc(C)c3c(C)n(-c4ccccc4)nc3c2=O)c1C the “activity change, negative = inhibition” value was inactive: 7.76%.
With COc1ccc(NC(=O)CC2C(=O)N(c3ccccc3)C(=O)N2CCc2sccc2C)cc1 (centres undefined) the “outcome” value was “inactive”.
In the case of CCOc1ccc(CNC(=O)C2CCCN(c3nn4cc(-c5ccc(OC)cc5)nc4s3)C2)cc1 (centres undefined), the “outcome” value is reported as “inactive”.
In the case of Cc1cc(=O)n(CC(=O)Nc2ccc(Cl)c(Cl)c2)c(-n2nc(C)cc2C)n1, the “activity change, negative = inhibition” value is reported as inactive: 23.6%.
For Cc1ccc(S(=O)(=O)N(CC(=O)Nc2cccnc2)c2cc(Cl)ccc2C)cc1, the “outcome” value was “inactive”.
With Cc1ccc(CN2CCC(CNC(=O)c3cnn(-c4ccc(C)cc4)c3C3CCN(C(=O)OC(C)(C)C)CC3)CC2)cc1 the “outcome” value was “inactive”.
